In all, about 310,000 compounds went through this assay and about 14,000 (4.5%) showed an effect of 50% or more. Effects have a minus sign here. The list shows a part of the results.
biological target: human ether-à-go-go-related gene (hERG) potassium channel (human, UniProt Q12809); assay: primary screen, population patch clamp on CHO cells stably expressing hERG
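Also: peak tail current of the secondary pulse compared with the same well before compound.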

Chain of human ether-à-go-go-related gene (hERG) potassium channel (Q12809 whole entry, looked up): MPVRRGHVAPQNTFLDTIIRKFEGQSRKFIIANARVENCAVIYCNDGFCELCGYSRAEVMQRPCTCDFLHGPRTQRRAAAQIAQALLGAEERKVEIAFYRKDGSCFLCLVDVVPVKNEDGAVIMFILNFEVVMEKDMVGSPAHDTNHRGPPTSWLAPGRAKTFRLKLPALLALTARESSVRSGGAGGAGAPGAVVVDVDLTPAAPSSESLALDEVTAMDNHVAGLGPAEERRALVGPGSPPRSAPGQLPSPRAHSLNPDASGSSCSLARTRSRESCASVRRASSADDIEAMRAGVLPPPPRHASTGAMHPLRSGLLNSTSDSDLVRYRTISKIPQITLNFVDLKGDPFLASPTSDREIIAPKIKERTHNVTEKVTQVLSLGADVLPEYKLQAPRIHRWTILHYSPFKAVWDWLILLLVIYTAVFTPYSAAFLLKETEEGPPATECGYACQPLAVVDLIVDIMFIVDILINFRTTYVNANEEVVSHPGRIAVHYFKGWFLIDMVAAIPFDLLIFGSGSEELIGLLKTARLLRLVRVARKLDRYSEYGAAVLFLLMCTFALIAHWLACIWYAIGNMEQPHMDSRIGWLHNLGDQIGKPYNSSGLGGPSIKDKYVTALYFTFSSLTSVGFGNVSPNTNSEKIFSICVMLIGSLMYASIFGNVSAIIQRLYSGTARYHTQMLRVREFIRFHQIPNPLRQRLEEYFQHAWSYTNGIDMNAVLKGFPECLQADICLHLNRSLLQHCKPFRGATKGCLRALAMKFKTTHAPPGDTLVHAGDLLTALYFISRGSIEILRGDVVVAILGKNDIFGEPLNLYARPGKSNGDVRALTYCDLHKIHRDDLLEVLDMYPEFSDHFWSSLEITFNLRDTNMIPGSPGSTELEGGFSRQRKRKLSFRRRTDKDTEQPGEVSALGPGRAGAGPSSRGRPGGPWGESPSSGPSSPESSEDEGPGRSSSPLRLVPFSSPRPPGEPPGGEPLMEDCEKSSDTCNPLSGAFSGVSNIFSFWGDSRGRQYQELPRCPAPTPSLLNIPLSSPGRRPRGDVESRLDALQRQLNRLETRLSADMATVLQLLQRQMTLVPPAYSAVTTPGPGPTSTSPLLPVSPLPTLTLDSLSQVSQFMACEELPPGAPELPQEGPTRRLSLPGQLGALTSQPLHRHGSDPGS

**Q.** How did the “hERG current change (%, negative = inhibition) at 10uM” value turn out when `CC(C)(C)c1ccc(C(=O)Nc2cccnc2)cc1` was run?
**A.** -18.7%

**Q.** Which “hERG current change (%, negative = inhibition) at 10uM” value does the source give for `COCCOC(=O)C1=C(C)NC(=O)NC1c1ccc(-c2ccc(F)cc2)o1` (centres unmarked) here?
**A.** 3.95%

**Q.** `Cc1cc(C)nc(N/N=C/c2cc(Br)ccc2O)n1` was tested. Which “hERG current change (%, negative = inhibition) at 10uM” value did it give?
**A.** 17.4%

**Q.** Which “hERG current change (%, negative = inhibition) at 10uM” value does the source give for `O=C(CCN1C(=O)C2C3CCC(C3)C2C1=O)Nc1ccc([N+](=O)[O-])cc1` (centres unmarked) here?
**A.** -32.8%

**Q.** With `CSc1ccc(Cl)c(C(=O)OCC(=O)NCc2ccco2)c1` as the compound, how does the “hERG current change (%, negative = inhibition) at 10uM” value read?
**A.** 3.4%

**Q.** With `CC(=O)c1ccc(-c2ccc(C(=O)NCC(c3ccc(F)cc3)N3CCOCC3)o2)cc1` (centres unmarked) as the compound, how does the “hERG current change (%, negative = inhibition) at 10uM” value read?
**A.** -38.8%

**Q.** Which “hERG current change (%, negative = inhibition) at 10uM” value does the source give for `O=C(O)Cn1c(-c2ccccc2)cc2ccccc21` here?
**A.** 14.1%

**Q.** How did the “hERG current change (%, negative = inhibition) at 10uM” value turn out when `Cc1cc(C(F)(F)F)n2nc(-c3sccc3-n3cccc3)cc2n1` was run?
**A.** 6.05%

**Q.** With `CCOC(=O)C1CCN(C(=O)CCCN2C(=O)c3ccccc3C2=O)CC1` as the compound, how does the “hERG current change (%, negative = inhibition) at 10uM” value read?
**A.** -13.5%

**Q.** Which “hERG current change (%, negative = inhibition) at 10uM” value does the source give for `CCOC(=O)CN(C(=O)COc1nc(-c2ccccc2)cc(C)c1C#N)c1ccccc1` here?
**A.** 15.9%

**Q.** With `COc1ccc(Cl)cc1NC(=O)NC(C)C` as the compound, how does the “hERG current change (%, negative = inhibition) at 10uM” value read?
**A.** 11.8%

**Q.** For `NC(=O)C1CCN(CCC(=O)Nc2cccc(Cl)c2)CC1`, which “hERG current change (%, negative = inhibition) at 10uM” value is on record?
**A.** 0.151%

**Q.** `C1=C(c2c[nH]c3ccccc23)CCN(Cc2ccccc2)C1` was tested. Which “hERG current change (%, negative = inhibition) at 10uM” value did it give?
**A.** -49.2%

**Q.** With `CC(C)(C)NS(=O)(=O)c1ccc2[nH]c3c(c2c1)CCCCC3` as the compound, how does the “hERG current change (%, negative = inhibition) at 10uM” value read?
**A.** 7.24%

**Q.** How did the “hERG current change (%, negative = inhibition) at 10uM” value turn out when `O=C(CNC(=O)c1ccc(Br)o1)NC1CCCCC1` was run?
**A.** 19.8%

**Q.** How did the “hERG current change (%, negative = inhibition) at 10uM” value turn out when `Cc1ccc(C(=O)NCCN2C3=NC[C@H](C)N3C[C@H]2Cc2ccc(O)cc2)cc1Br` was run?
**A.** -8.85%

**Q.** For `Cc1onc(-c2ccccc2)c1C(=O)OCCOc1ccc([N+](=O)[O-])cc1[N+](=O)[O-]`, which “hERG current change (%, negative = inhibition) at 10uM” value is on record?
**A.** -17.9%

**Q.** `CCCc1ccc2oc(C(=O)N(Cc3nccn3C)C(C)C)c(C)c2c1` was tested. Which “hERG current change (%, negative = inhibition) at 10uM” value did it give?
**A.** -48.4%

**Q.** With `Cc1c(NC(=O)COC(=O)Cc2ccc(Cl)cc2)c(=O)n(-c2ccccc2)n1C` as the compound, how does the “hERG current change (%, negative = inhibition) at 10uM” value read?
**A.** -1.5%

**Q.** With `CCOC(=O)C(Cc1c(F)cccc1Cl)c1ccno1` (centres unmarked) as the compound, how does the “hERG current change (%, negative = inhibition) at 10uM” value read?
**A.** 9.08%

**Q.** For `O=C(O)c1cccc2cccnc12`, which “hERG current change (%, negative = inhibition) at 10uM” value is on record?
**A.** 3.37%

**Q.** `CCCc1cc(=O)oc2cc(C)cc(OC(C)C(=O)NCCCN3CCOCC3)c12` (centres unmarked) was tested. Which “hERG current change (%, negative = inhibition) at 10uM” value did it give?
**A.** -5.19%

**Q.** `C/C(N)=C(/C#N)C(=O)CSc1nc2ccccc2[nH]1` was tested. Which “hERG current change (%, negative = inhibition) at 10uM” value did it give?
**A.** -7.3%

**Q.** For `COc1cccc(N2CCN(c3nc(-c4ccccc4C)cc(=O)[nH]3)CC2)c1`, which “hERG current change (%, negative = inhibition) at 10uM” value is on record?
**A.** 3.88%

**Q.** How did the “hERG current change (%, negative = inhibition) at 10uM” value turn out when `Cc1ccc(O)c(C(=O)CC(=O)c2ccc(Cl)cc2)c1` was run?
**A.** 24.5%

**Q.** `C#CCOCCOCCOCCNc1nc(N2CCOCC2)nc(N2CCN(C(=O)Cn3cc(CCC[NH+]=C(N)N)nn3)CC2)n1.[Cl-]` was tested. Which “hERG current change (%, negative = inhibition) at 10uM” value did it give?
**A.** 19.2%

**Q.** For `O=[N+]([O-])c1ccc2nn(Cc3ccccc3)cc2c1`, which “hERG current change (%, negative = inhibition) at 10uM” value is on record?
**A.** -18.2%

**Q.** `O=C(NCC1CCCO1)c1cc2ccccc2oc1=O` (centres unmarked) was tested. Which “hERG current change (%, negative = inhibition) at 10uM” value did it give?
**A.** 9.43%

**Q.** For `CCOC(=O)C1=C(Nc2ccccc2)CC(C)(O)C(C(=O)OCC)C1c1ccc(Cl)cc1` (centres unmarked), which “hERG current change (%, negative = inhibition) at 10uM” value is on record?
**A.** 10.7%

**Q.** With `C=C(C)CNC(=S)Nc1ccc(S(=O)(=O)Nc2cnc3ccccc3n2)cc1` as the compound, how does the “hERG current change (%, negative = inhibition) at 10uM” value read?
**A.** 8.21%

**Q.** With `Cc1cccc(Nc2c([N+](=O)[O-])ccc3nonc23)c1` as the compound, how does the “hERG current change (%, negative = inhibition) at 10uM” value read?
**A.** 32.4%

**Q.** For `O=[N+]([O-])c1ccc(Sc2cccc3cccnc23)c([N+](=O)[O-])c1`, which “hERG current change (%, negative = inhibition) at 10uM” value is on record?
**A.** 16.6%

**Q.** With `Cc1c(NC(=O)c2cc(-c3ccc(Cl)cc3)on2)c(=O)n(-c2ccccc2)n1C` as the compound, how does the “hERG current change (%, negative = inhibition) at 10uM” value read?
**A.** -55.1%

**Q.** `CC(=NCCN1CCOCC1)C1=C(O)c2ccccc2C1=O` was tested. Which “hERG current change (%, negative = inhibition) at 10uM” value did it give?
**A.** 7.99%

**Q.** For `O=c1[nH]c2c(s1)C(c1ccco1)C1C3CCC(C3)C1S2` (centres unmarked), which “hERG current change (%, negative = inhibition) at 10uM” value is on record?
**A.** 5.92%

**Q.** With `Cc1c(C(=O)NC2CC(=O)N(c3ccc4c(c3)OCCO4)C2)cccc1[N+](=O)[O-]` (centres unmarked) as the compound, how does the “hERG current change (%, negative = inhibition) at 10uM” value read?
**A.** 0.354%

**Q.** How did the “hERG current change (%, negative = inhibition) at 10uM” value turn out when `Cl.Nc1ccc(N2CCN(CCCCN3C(=O)C4CCCN4C3=O)CC2)cc1.O` (centres unmarked) was run?
**A.** -9.33%

**Q.** With `Cl.OCCN1CCN(CC(O)COCC2COc3ccccc3O2)CC1` (centres unmarked) as the compound, how does the “hERG current change (%, negative = inhibition) at 10uM” value read?
**A.** 33.4%

**Q.** How did the “hERG current change (%, negative = inhibition) at 10uM” value turn out when `CCOc1ccc(Nc2nc(N)nc(CN(C)C3CCCCC3)n2)cc1` was run?
**A.** -71.5%

**Q.** `Cc1nc(-c2cccc(S(=O)(=O)N3CCOCC3)c2)cs1` was tested. Which “hERG current change (%, negative = inhibition) at 10uM” value did it give?
**A.** -2.11%

**Q.** For `CC(=O)Nc1ccc(NC(=O)c2c(C)noc2C)cc1`, which “hERG current change (%, negative = inhibition) at 10uM” value is on record?
**A.** 22.4%

**Q.** With `CCOC(=O)c1c(N)c(C#N)c2n1CCCC2` as the compound, how does the “hERG current change (%, negative = inhibition) at 10uM” value read?
**A.** -10.3%

**Q.** How did the “hERG current change (%, negative = inhibition) at 10uM” value turn out when `CNC(=O)c1ccsc1NC(=O)C1CCCN1S(=O)(=O)c1cccs1` (centres unmarked) was run?
**A.** 7.6%

**Q.** How did the “hERG current change (%, negative = inhibition) at 10uM” value turn out when `CCOC(=O)C1Cn2c(nc3c(c2=O)C(C)(C)Cc2ccccc2-3)S1` (centres unmarked) was run?
**A.** -0.972%

**Q.** For `Cc1ccc(CNC(=O)CCS(=O)(=O)c2ccc3c(c2)CC(C)N3C(=O)C2CC2)o1` (centres unmarked), which “hERG current change (%, negative = inhibition) at 10uM” value is on record?
**A.** 11.3%

**Q.** With `CCN(CC)C(=O)C1CCCN(Cc2ccc3c(c2)OCO3)C1` (centres unmarked) as the compound, how does the “hERG current change (%, negative = inhibition) at 10uM” value read?
**A.** 10%

**Q.** How did the “hERG current change (%, negative = inhibition) at 10uM” value turn out when `COc1ccc(/C=N/NC(=O)c2ccc(Br)cc2)cc1CN1CCOCC1` was run?
**A.** -64.8%

**Q.** For `COCCNC(=O)C(c1ccc(C)o1)N(Cc1ccco1)C(=O)c1snc(C(N)=O)c1N` (centres unmarked), which “hERG current change (%, negative = inhibition) at 10uM” value is on record?
**A.** 4.68%

**Q.** Which “hERG current change (%, negative = inhibition) at 10uM” value does the source give for `Cc1sc2ncn(CC(=O)NCCc3ccccc3)c(=O)c2c1C` here?
**A.** -2.56%

**Q.** How did the “hERG current change (%, negative = inhibition) at 10uM” value turn out when `CC1=C(C(=O)OCc2ccccc2)C(c2ccco2)n2ncnc2N1` (centres unmarked) was run?
**A.** -11.4%

**Q.** How did the “hERG current change (%, negative = inhibition) at 10uM” value turn out when `O=C(NCc1ccc2c(c1)OCO2)c1cc(-c2ccc(Cl)cc2Cl)on1` was run?
**A.** 8.81%

**Q.** Which “hERG current change (%, negative = inhibition) at 10uM” value does the source give for `O=C(NCc1ccc(Cl)cc1)C1CCC(CNS(=O)(=O)c2ccccc2)CC1` (centres unmarked) here?
**A.** 1.89%

**Q.** Which “hERG current change (%, negative = inhibition) at 10uM” value does the source give for `CCOc1ccc(-c2cc(C(=O)N/N=C(\C)c3cccnc3)c3ccccc3n2)c(OCC)c1` here?
**A.** 22%

**Q.** For `N#Cc1nc(-c2ccc(OCc3ccccc3)cc2)oc1N1CCC(C(N)=O)CC1`, which “hERG current change (%, negative = inhibition) at 10uM” value is on record?
**A.** 5.99%

**Q.** For `COc1ccc(S(=O)(=O)N(CCc2ccccc2)CC(N)=O)cc1`, which “hERG current change (%, negative = inhibition) at 10uM” value is on record?
**A.** -32.4%

**Q.** For `CC(C)NC(=S)N(C)C1(c2ccccc2Cl)CCCCC1=O` (centres unmarked), which “hERG current change (%, negative = inhibition) at 10uM” value is on record?
**A.** 0.189%

From publication PMC4336329 (PLoS ONE, 2015)
